Measurements: the supplement of paper PMC12217912
The other results are listed elsewhere or left out. Sequences were assembled here from the parent chain. Values near 0.05 are background.

B1: TEV protease; numbered along this chain (parent)
chain: MGESLFKGPRDYNPISSSICHLTNESDGHTTSLYGIGFGPFIITNKHLFRRNNGTLVVQSLHGVFKVKDTTTLQQHLVDGRDMIIIRMPKDFPPFPQKLKFREPQREERICLVTTNFQTKSMSSMVSDTSCTFPSGDGIFWKHWIQTKDGQCGSPLVSTRDGFIVGIHSASNFTNTNNYFTSVPKNFMELLTNQEAQQWVSGWRLNADSVLWGGHKVFMVKPEEPFQPVKEATQL

Variants of: B1
Experiment: raw area under fraction-flipped curve 0-4 h after induction (AUC4h, not background-subtracted), DNA-recorder readout of cleavage of the substrate (dimensionless); higher = more cleavage of the substrate by the protease variant
Conditions: temperature: 34 °C; time window: 0-4 h after rhamnose induction
Method: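 In vivo DNA recorder in E. coli TOP10(DE3) ΔrhaA at 34 °C. Each TEVp single-site mutant (parent TEVp 0) is paired with a single-site variant of the 7-mer TEVs (canonical ENLYFQ|S). The substrate sits between flexible linkers in a Bxb1-sfGFP-TEVs-SsrA fusion, so cleavage stabilises Bxb1 and speeds flipping of a recombination array, read by NGS. The value is the raw area under the fraction-flipped curve over 0-4 h after rhamnose induction (AUC4h), with ≥20 reads per time point. It is not background-subtracted; inactive controls average about 0.047.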
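Further: Bxb1 expression induced with 0.2% (w/v) L-rhamnose at OD600 near 0.5, cultures sampled hourly, flipped fraction per protease–substrate barcode pair counted by paired-end Illumina sequencing.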

| Variant | area with substrate CNLYFQS | area with substrate DNLYFQS | area with substrate FNLYFQS | area with substrate HNLYFQS | area with substrate INLYFQS | area with substrate KNLYFQS | area with substrate LNLYFQS | area with substrate MNLYFQS | area with substrate SNLYFQS | area with substrate TNLYFQS | area with substrate WNLYFQS | area with substrate YNLYFQS | area with substrate GNLYFQS | area with substrate PNLYFQS | area with substrate QNLYFQS | area with substrate RNLYFQS | area with substrate VNLYFQS | area with substrate NNLYFQS |
| --- | --- | --- | --- | --- | --- | --- | --- | --- | --- | --- | --- | --- | --- | --- | --- | --- | --- | --- |
| MGESLFKGPRDYNPISSSICHLTNESDGHTTSLYGIGFGPFIITNKHLFRRNNGTLVVQSLHGVFKVKDTTTLQQHLVDGRDMIIIRMPKDFPPFPQKLKFREPQREERICLVTTNFQTKSMSSMVSDTSCTFPSGDGIFWKHWIQTKDGQCGSPLVGTRDGFIVGIHSASNFTNTNNYFTSVPKNFMELLTNQEAQQWVSGWRLNADSVLWGGHKVFMVKPEEPFQPVKEATQL [S158G] | 0.0646 | 0.0747 | 0.069 | 0.0743 | 0.0718 | 0.0714 | 0.0559 | 0.0709 | 0.0644 | 0.0673 | 0.0478 | 0.0643 | – | – | – | – | – | – |
| MGESLFKGPRDYNPISSSICHLTNESDGHTTSLYGIGFGPFIITNKHLFRRNNGTLVVQSLHGVFKVKDTTTLQQHLVDGRDMIIIRMPKDFPPFPQKLKFREPQREERICLVTTNFQTKSMSSMVSDTSCTFPSGDGIFWKHWIQTKDGQCGSPLDSTRDGFIVGIHSASNFTNTNNYFTSVPKNFMELLTNQEAQQWVSGWRLNADSVLWGGHKVFMVKPEEPFQPVKEATQL [V157D] | 0.0583 | 0.0451 | – | 0.043 | – | – | 0.0464 | 0.043 | 0.048 | 0.0505 | 0.0483 | 0.0465 | 0.0486 | 0.0506 | 0.05 | 0.0387 | 0.0527 | – |
| MGESLFKGPRDYNPISSSICHLTNESDGHTTSLYGIGFGPFIITNKHLFRRNNGTLVVQSLHGVFKVKDTTTLQQHLVDGRDMIIIRMPKDFPPFPQKLKFREPQREERICLVTTNFQTKSMSSMVSDTSCTFPSGDGIFWKHWIQTKDGQCGSPLSSTRDGFIVGIHSASNFTNTNNYFTSVPKNFMELLTNQEAQQWVSGWRLNADSVLWGGHKVFMVKPEEPFQPVKEATQL [V157S] | 0.0813 | 0.0631 | – | 0.0402 | 0.0487 | – | 0.0586 | – | 0.0507 | – | 0.0466 | 0.065 | 0.0553 | 0.0695 | – | 0.0563 | – | 0.0552 |
| MGESLFKGPRDYNPISSSICHLTNESDGHTTSLYGIGFGPFIITNKHLFRRNNGTLVVQSLHGVFKVKDTTTLQQHLVDGRDMIIIRMPKDFPPFPQKLKFREPQREERICLVTTNFQTKSMSSMVSDTSCTFPSGDGIFWKHWIQTKDGQCGSPLLSTRDGFIVGIHSASNFTNTNNYFTSVPKNFMELLTNQEAQQWVSGWRLNADSVLWGGHKVFMVKPEEPFQPVKEATQL [V157L] | 0.0737 | 0.0653 | 0.0611 | 0.0617 | 0.0534 | 0.0625 | 0.0578 | 0.0685 | 0.0704 | 0.0557 | 0.0574 | 0.062 | 0.0815 | – | – | – | – | 0.0103 |
| MGESLFKGPRDYNPISSSICHLTNESDGHTTSLYGIGFGPFIITNKHLFRRNNGTLVVQSLHGVFKVKDTTTLQQHLVDGRDMIIIRMPKDFPPFPQKLKFREPQREERICLVTTNFQTKSMSSMVSDTSCTFPSGDGIFWKHWIQTKDGQCGSKLVSTRDGFIVGIHSASNFTNTNNYFTSVPKNFMELLTNQEAQQWVSGWRLNADSVLWGGHKVFMVKPEEPFQPVKEATQL [P155K] | 0.0571 | 0.0434 | 0.0343 | 0.0463 | 0.042 | 0.054 | 0.0676 | 0.0676 | – | 0.0533 | 0.0518 | 0.0411 | 0.0691 | 0.0583 | – | – | 0.0475 | – |
